In patent publication US9199944B2 (priority 2012, dated 2015) one finds GI50 data, which are given here for 21 compounds.

Assay in all cases: cells
Assay [1] has as its system Hs746T (stomach cancer cells). To be noted: Homo sapiens, 72 h, read-out: Hs746TCP GI50 (μM).
The subject of assay [2] is H1993 (lung cancer cells). To be noted: Homo sapiens, NCI-H1993, 72 h, read-out: H1993CP GI50 (μM).
Assay [3] concerns H3122 (lung cancer cells). To be noted: Homo sapiens, NCI-H3122, 72 h, read-out: H3122CP GI50 (μM).
Assay [4] has as its system H2228 (lung cancer cells). To be noted: Homo sapiens, NCI-H2228, 72 h, read-out: H2228CP GI50 (μM).

What is called GI50 is the concentration giving 50% growth inhibition. `COc1cc(N2CCN(C(C)=O)CC2)ccc1Nc1nc(Nc2ccc(N3CCN(C(C)=O)CC3)cc2)ncc1Cl` [Example 10, 1-(4-(4-(4-(4-(4-acetylpiperazin-1-yl)-2-methoxyphenylamino)-5-chloropyrimidin-2-ylamino)phenyl)piperazin-1-yl)ethanone]: the GI50 in assay [1] worked out at 1.05 µM; in assay [2], 0.977 µM; in assay [3], 0.096 µM; in assay [4], 0.281 µM.

Regarding `COc1cc(N2CCN(C(C)=O)CC2)ccc1Nc1ncc(C(F)(F)F)c(Nc2ccc(N3CCN(C)CC3)cc2OC)n1` [Example 59], the concentration for 50% growth inhibition (GI50) amounted to 2.27 µM in assay [1], 9.34 µM in assay [2], 0.0009 µM in assay [3] and 0.351 µM in assay [4].

For the compound `COc1cc(N2CCN(C(C)=O)CC2)ccc1Nc1ncc(Cl)c(Nc2ccc(N3CCN(CCO)CC3)cc2OC)n1` [Example 16, 1-(4-(4-(5-chloro-4-(4-(4-(2-hydroxyethyl)piperazin-1-yl)-2-methoxyphenylamino)pyrimidin-2-ylamino)-3-methoxyphenyl)piperazin-1-yl)ethanone], the GI50 in assay [1] came out at 3.69 µM; in assay [2] it was 6.73 µM; in assay [4] it was 0.488 µM.

On to `COc1cc(N2CCN(C(C)=O)CC2)ccc1Nc1ncc(Cl)c(Nc2ccc(N3CCNCC3)cc2F)n1` [Example 81, 1-(4-(4-((5-chloro-4-((2-fluoro-4-(piperazin-1-yl)phenyl)amino)pyrimidin-2-yl)amino)-3-methoxyphenyl)piperazin-1-yl)ethanone], for which the GI50 was 0.96 µM in assay [1], 4.02 µM in assay [2] and 0.37 µM in assay [4].

For `COc1cc(N2CCN(C(=O)CO)CC2)ccc1Nc1ncc(C(F)(F)F)c(Nc2ccc(N3CCN(C(=O)CO)CC3)cc2OC)n1` [Example 72, 1,1′-(4,4′-(((5-(trifluoromethyl)pyrimidin-2,4-diyl)bis(azanediyl))bis(3-methoxy-4,1-phenylene))bis(piperazin-4,1))bis(2-hydroxyethanone)], the 50% growth inhibitory concentration (GI50) in assay [1] came out at 3.16 µM; in assay [2] it was 8.85 µM; in assay [3], 0.0081 µM; in assay [4] it was 1.14 µM.

As to `CCNC(=O)N1CCN(c2ccc(Nc3nc(Nc4ccc(N5CCN(C(C)=O)CC5)cc4OC)ncc3C(F)(F)F)c(OC)c2)CC1` [Example 57, 4-(4-((2-((4-(4-acetylpiperazine)-2-methoxyphenyl)amino)-5-(trifluoromethyl)pyrimidin-4-yl)amino)-3-methoxyphenyl)-N-ethylpiperazin-1-carboxyamide], the GI50 in assay [1] is 0.33 µM; in assay [2], 0.98 µM; in assay [3], 0.001 µM; in assay [4], 0.037 µM.

Turning to `COc1cc(N2CCNCC2)ccc1Nc1ncc(C(F)(F)F)c(Nc2ccc(N3CCN(C(C)=O)CC3)cc2OC)n1` [Example 63, 1-(4-(3-methoxy-4-((2-((2-methoxy-4-(piperazin-1-yl)phenyl)amino)-5-(trifluoromethyl)pyrimidin-4-yl)amino)phenyl)piperazin-1-yl)ethanone], the 50% growth inhibitory concentration (GI50) in assay [1] is 3.13 µM; in assay [2], 2.38 µM; in assay [3], 0.0009 µM; in assay [4], 0.132 µM.

For `CCNC(=O)N1CCN(c2ccc(Nc3ncc(Cl)c(Nc4ccc(N5CCN(C(=O)NCC)CC5)cc4OC)n3)c(OC)c2)CC1` [Example 78, 4,4′-(((5-chloropyrimidin-2,4-diyl)bis(azanediyl))bis(3-methoxy-4,1-phenylene))bis(N-ethylpiperazin-1-carboxyamide)], the GI50 was 5.06 µM in assay [1], above 10 µM in assay [2], 0.43 µM in assay [3] and 0.93 µM in assay [4].

With `COc1cc(N2CCN(C(C)=O)CC2)ccc1Nc1ncc(F)c(Nc2ccc(N3CCN(C(=O)CO)CC3)cc2OC(F)F)n1` [Example 44, 1-(4-(4-(2-(4-(4-acetylpiperazin-1-yl)-2-methoxyphenylamino)-5-fluoropyrimidin-4-ylamino)-3-(difluoromethoxy)phenyl)piperazin-1-yl)-2-hydroxyethanone], the 50% growth inhibitory concentration (GI50) was 8.04 µM in assay [1], above 10 µM in assay [2], 0.02 µM in assay [3] and 0.952 µM in assay [4].

For the compound `C[C@@H](Oc1cc(-c2cnn(C3CCNCC3)c2)cnc1N)c1c(Cl)ccc(F)c1Cl` [Crizotinib, reference compound], the 50% growth inhibitory concentration (GI50) in assay [1] amounted to 0.00012 µM; in assay [4], 0.851 µM.

Take `COc1cc(N2CCN(C(C)=O)CC2)ccc1Nc1ncc(Cl)c(Nc2ccc(N3CCN(C(C)=O)CC3)cc2OC(C)C)n1` [Example 3, 1-(4-(4-(4-(4-(4-acetylpiperazin-1-yl)-2-isopropoxyphenylamino)-5-chloropyrimidin-2-ylamino)-3-methoxyphenyl)piperazin-1-yl)ethanone]: the 50% growth inhibitory concentration (GI50) in assay [1] worked out at 2.92 µM; in assay [2], 5.94 µM; in assay [3], 0.41 µM; in assay [4] it was 1.17 µM.

As for `COc1cc(N2CCN(C(C)=O)CC2)ccc1Nc1ccnc(Nc2ccc(N3CCN(C(C)=O)CC3)cc2OC)n1` [Example 19, 1,1′-(4,4′-(4,4′-(pyrimidin-2,4-diylbis(azanediyl))bis(3-methoxy-4,1-phenylene))bis(piperazin-4,1-diyl))diethanone], the GI50 in assay [1] was above 10 µM; in assay [2], above 10 µM; in assay [3], 1.1 µM; in assay [4], 0.961 µM.

Consider `COc1cc(N2CCN(CCO)CC2)ccc1Nc1ncc(C(F)(F)F)c(Nc2ccc(N3CCN(C(C)=O)CC3)cc2OC)n1` [Example 68, 1-(4-(4-((2-((4-(4-(2-hydroxyethyl)piperazin-1-yl)-2-methoxyphenyl)amino)-5-(trifluoromethyl)pyrimidin-4-yl)amino)-3-methoxyphenyl)piperazin-1-yl)ethanone], for which the GI50 amounted to 2.25 µM in assay [1], 3.36 µM in assay [2], 0.0003 µM in assay [3] and 0.119 µM in assay [4].

As for `COc1cc(N2CCN(C(C)=O)CC2)ccc1Nc1ncc(Cl)c(Nc2ccc(N3CCN(S(N)(=O)=O)CC3)cc2OC)n1` [Example 21, 4-(4-(2-(4-(4-acetylpiperazin-1-yl)-2-methoxyphenylamino)-5-chloropyrimidin-4-ylamino)-3-methoxyphenyl)piperazin-1-sulfonamide], the GI50 in assay [1] was determined as 3.37 µM; in assay [2], 3.44 µM; in assay [4], 0.098 µM.

As for `CCNC(=O)N1CCN(c2ccc(Nc3ncc(C(F)(F)F)c(Nc4ccc(N5CCN(C(=O)NCC)CC5)cc4OC)n3)c(OC)c2)CC1` [Example 71, 4,4′-(((5-(trifluoromethyl)pyrimidin-2,4-diyl)bis(azanediyl))bis(3-methoxy-4,1-phenylene))bis(N-ethylpiperazin-1-carboxyamide)], the concentration for 50% growth inhibition (GI50) was determined as 2.06 µM in assay [1], 5.7 µM in assay [2], 0.115 µM in assay [3] and 1.41 µM in assay [4].

Turning to `COc1cc(N2CCN(C(C)=O)CC2)ccc1Nc1ncc(Cl)c(Nc2ccc(N3CCN(C(=O)OC(C)(C)C)CC3)cc2OC)n1` [Example 15, tert-butyl 4-(4-(2-(4-(4-acetylpiperazin-1-yl)-2-methoxyphenylamino)-5-chloropyrimidin-4-ylamino)-3-methoxyphenyl)piperazin-1-carboxylate], the concentration for 50% growth inhibition (GI50) in assay [1] came out at 3.74 µM; in assay [2], 8.86 µM; in assay [3], 0.918 µM; in assay [4] it was 0.692 µM.

Consider `COc1cc(N2CCN(C(C)=O)CC2)ccc1Nc1ncc(C(F)(F)F)c(Nc2ccc(N3CCNCC3)cc2OC)n1` [Example 56, 1-(4-(3-methoxy-4-((4-((2-methoxy-4-(piperazin-1-yl)phenyl)amino)-5-(trifluoromethyl)pyrimidin-2-yl)amino)phenyl)piperazin-1-yl)ethanone], for which the GI50 in assay [1] stood at 2.74 µM; in assay [2], 2.33 µM; in assay [3], 0.001 µM; in assay [4], 0.127 µM.

For the compound `COc1cc(N2CCN(C(C)=O)CC2)ccc1Nc1ncc(C(F)(F)F)c(Nc2ccc(N3CCN(CCO)CC3)cc2OC)n1` [Example 61, 1-(4-(4-((4-((4-(4-(2-hydroxyethyl)piperazin-1-yl)-2-methoxyphenyl)amino)-5-(trifluoromethyl)pyrimidin-2-yl)amino)-3-methoxyphenyl)piperazin-1-yl)ethanone], the figures for the GI50 in assay [1], in assay [2] and in assay [4] were 2.51 µM, above 10 µM and 0.116 µM, respectively.

`COc1cc(N2CCN(C(C)=O)CC2)ccc1Nc1ncc(F)c(Nc2ccc(N3CCN(CCO)CC3)cc2OC(F)F)n1` [Example 42, 1-(4-(4-(4-(2-(difluoromethoxy)-4-(4-(2-hydroxyethyl)piperazin-1-yl)phenylamino)-5-fluoropyrimidin-2-ylamino)-3-methoxyphenyl)piperazin-1-yl)ethanone]: the GI50 in assay [1] was 9.68 µM; in assay [2] it was above 10 µM; in assay [3], 0.032 µM.

Turning to `COc1cc(N2CCN(C(C)=O)CC2)ccc1Nc1ncc(F)c(Nc2ccc(N3CCN(CCO)CC3)cc2OC)n1` [Example 28, 1-(4-(4-(5-fluoro-4-(4-(4-(2-hydroxyethyl)piperazin-1-yl)-2-methoxyphenylamino)pyrimidin-2-ylamino)-3-methoxyphenyl)piperazin-1-yl)ethanone], the results for the GI50 in assay [1], in assay [2] and in assay [4] were above 10 µM, 4.28 µM and 0.112 µM, respectively.

Take `COc1cc(N2CCN(S(C)(=O)=O)CC2)ccc1Nc1ncc(C(F)(F)F)c(Nc2ccc(N3CCN(C(C)=O)CC3)cc2OC)n1` [Example 67, 1-(4-(3-methoxy-4-((2-((2-methoxy-4-(4-(methylsulfonyl)piperazin-1-yl)phenyl)amino)-5-(trifluoromethyl)pyrimidin-4-yl)amino)phenyl)piperazin-1-yl)ethanone]: the GI50 in assay [1] was 1.73 µM; in assay [2] it was above 10 µM; in assay [4], 0.281 µM.
